{"source": "PubChem BioAssay AID588342", "about": "(National Center for Advancing Translational Sciences (NCATS), 2011)", "note": "About 25,000 (6.9%) of roughly 360,000 compounds were called active. Inconclusive means that the source gave no clear call. Such entries were picked first, then a sample of the others. Calls follow the shape of the dose curve; as a rule, active = well fitted inhibition curve with a large enough effect; inconclusive = small, poorly fitted or top-dose-only effect; inactive = flat fitted curve, though single readings scatter. Potencies beside an inconclusive call are fits to weak or partial responses and may not hold up. Potency is read from the fitted curve at half-maximal effect; tags tell the direction and shape of the fitted curve."}
{"molecular_target": "Luciferin 4-monooxygenase (Photinus pyralis) (UniProt P08659)", "sequence (P08659 whole entry, looked up)": "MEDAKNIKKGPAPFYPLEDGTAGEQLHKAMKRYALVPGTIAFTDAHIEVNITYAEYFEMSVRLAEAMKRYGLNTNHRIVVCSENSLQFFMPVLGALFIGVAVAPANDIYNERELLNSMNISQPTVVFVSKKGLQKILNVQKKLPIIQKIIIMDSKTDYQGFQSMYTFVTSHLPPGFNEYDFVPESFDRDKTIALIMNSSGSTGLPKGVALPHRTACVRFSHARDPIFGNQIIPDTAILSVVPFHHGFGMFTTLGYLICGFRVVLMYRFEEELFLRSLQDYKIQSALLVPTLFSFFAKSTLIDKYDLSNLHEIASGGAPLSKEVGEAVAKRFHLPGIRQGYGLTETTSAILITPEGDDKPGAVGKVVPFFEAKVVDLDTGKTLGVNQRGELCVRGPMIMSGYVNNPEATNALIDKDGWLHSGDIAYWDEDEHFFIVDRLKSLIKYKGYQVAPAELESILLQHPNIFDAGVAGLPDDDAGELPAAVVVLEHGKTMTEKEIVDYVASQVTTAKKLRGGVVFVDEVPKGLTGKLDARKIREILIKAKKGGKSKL", "assay": "qHTS profiling assay for firefly luciferase inhibitor/activator using purifed enzyme and Km concentrations of substrates (counterscreen for miR-21 project); also: nearly all actives have a fitted effect of over 55% in size", "settings": "purified FLuc, luminescence inhibition; series mostly up to 57.5 µM", "summary_of_the_method": "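Purified P. pyralis luciferase (10nM final) with 10uM D-luciferin and 10uM ATP (Km levels) in 50mM Tris acetate pH 7.5, 10mM Mg acetate, 0.01% Tween-20, 0.05% BSA; qHTS 6-point titration, ~60 µM downward; luminescence read.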"}
{"smiles": "O=C(Nc1ncc2c(n1)-c1ccccc1CC2)c1cccc(Cl)c1", "Potency": "inconclusive: 37.9 µM [inhibitor, partial curve, poor fit]"}
{"smiles": "CC1CSc2nc3sc4c(c3c(=O)n21)CCCC4", "note": "(stereo unspecified)", "Potency": "inconclusive: 26.9 µM [inhibitor, single point]"}
{"smiles": "CC1CCCN(C(=S)NCCc2ccccc2)C1", "note": "(stereo unspecified)", "Potency": "inconclusive: 26.9 µM [inhibitor, single point]"}
{"smiles": "CN(CCC(=O)Nc1ccc(Cl)cc1)Cc1ccccc1", "Potency": "inactive"}
{"smiles": "COc1ccc(C(=O)Nc2cccc(N(C)S(C)(=O)=O)c2)cc1OC", "Potency": "active: 16.9 µM"}
{"smiles": "Cc1cc(N2CCN(c3ccccc3)CC2)nc2ccccc12", "Potency": "active: 15.1 µM"}
{"smiles": "COc1ccc(C(=O)CSc2ccc(-c3ccco3)nn2)cc1", "Potency": "inconclusive: 23.9 µM [inhibitor, partial curve, poor fit]"}
{"smiles": "CCc1c(C)nc(N)n2c(SCC(=O)Nc3ccccc3)nnc12", "Potency": "inactive"}
{"smiles": "O=C(O)C(c1ccccc1)N1C(=O)/C(=C\\c2ccc(O)c(O)c2)SC1=S", "note": "(stereo unspecified)", "Potency": "inconclusive: 19 µM [inhibitor, partial curve, poor fit]"}
{"smiles": "O=C(Nc1nc2cc3c(cc2s1)OCCO3)c1ccc(N2C(=O)CCC2=O)cc1", "Potency": "inconclusive: 3.01 µM [inhibitor, partial curve, poor fit]"}
{"smiles": "CC1(C)CC(=O)C(C=Nc2ccc3c(c2)OCO3)=C(O)C1", "Potency": "active: 15.1 µM"}
{"smiles": "CCOc1cc(/C=N\\NC(=O)c2ccc(C)nc2)cc([N+](=O)[O-])c1O", "Potency": "inconclusive: 26.9 µM [inhibitor, partial curve, poor fit]"}
{"smiles": "O=C(Nc1ccc(S(=O)(=O)N2C[C@@H]3C[C@@H](C2)c2cccc(=O)n2C3)cc1)c1ccc(F)cc1", "Potency": "inactive"}
{"smiles": "CC(C)c1ccc(O)c(NC(=O)c2ncn[nH]2)c1", "Potency": "inconclusive: 16.9 µM [inhibitor, partial curve]"}
{"smiles": "CC(C)(C)NC(=O)NC(=O)COC(=O)c1c(F)cccc1Cl", "Potency": "inconclusive: 37.9 µM [inhibitor, partial curve, poor fit]"}
{"smiles": "O=C(CCCCCN1C(=O)c2cccc3cccc(c23)C1=O)N1CCOCC1", "Potency": "inconclusive: 19 µM [inhibitor, partial curve, poor fit]"}
{"smiles": "CC/C=C/C(=O)N1CC2(CC(c3cccc(NC(=O)COc4ccc(Cl)cc4)c3)=NO2)C[C@H]1C(N)=O", "note": "(stereo partly specified)", "Potency": "active: 12 µM"}
{"smiles": "Clc1ccc(-c2noc3ncnc(NCCc4ccccc4)c23)cc1", "Potency": "inconclusive: 23.9 µM [inhibitor, partial curve, poor fit]"}
{"smiles": "COc1ccc(S(=O)(=O)N2Cc3ccccc3CC2C(=O)Nc2nccs2)cc1OC", "note": "(stereo unspecified)", "Potency": "inconclusive: 26.9 µM [inhibitor, single point]"}
{"smiles": "N#Cc1ccccc1CSc1nc2ccc(NC(=O)c3ccccc3C(=O)O)cc2s1", "Potency": "inconclusive: 37.9 µM [inhibitor, single point]"}
{"smiles": "O=C(OCC(=O)N1CCOCC1)c1ccc2c(c1)OCCO2", "Potency": "inactive"}
{"smiles": "O=C(c1ccc(Cl)c([N+](=O)[O-])c1)N1CCN(c2ccccc2)CC1", "Potency": "inactive"}
{"smiles": "CCOC(=O)c1c(C)[nH]c(C)c1S(=O)(=O)N1CCCC(C(=O)N2CCN(c3cccc(C)c3C)CC2)C1", "note": "(stereo unspecified)", "Potency": "inactive"}
{"smiles": "COc1ccc(N2C(S)=C(C#N)C(=O)NC23CCCCC3)cc1", "Potency": "active: 26.9 µM"}
{"smiles": "Cc1nn(C)cc1C(=O)/C=C/c1ccc([N+](=O)[O-])cc1", "Potency": "inconclusive: 8.49 µM [inhibitor, full curve]"}
{"smiles": "COc1cccc(NC(=O)CN(C)C(=O)c2oc3c(ccc4ccccc43)c2C)c1", "Potency": "inactive"}
{"smiles": "Nc1nc(-c2ccc(-c3ccccc3)cc2)cs1", "Potency": "active: 2.39 µM"}
{"smiles": "COc1ccc(Br)cc1CNC(=O)Cn1nc(C)n2cccc2c1=O", "Potency": "inactive"}
{"smiles": "Cn1cccc1C(=O)NNC(=O)COc1ccccc1F", "Potency": "inconclusive: 23.9 µM [inhibitor, partial curve]"}
{"smiles": "COc1ccc(-n2nc3c(c2NC(=O)COc2cccc(OC)c2)CS(=O)(=O)C3)cc1", "Potency": "inactive"}
{"smiles": "CC(=O)Nc1ccc2c(c1)C(=O)N(c1ccc(C)cc1)C2=O", "Potency": "inconclusive: 10.7 µM [inhibitor, partial curve]"}
{"smiles": "O=C(COc1ccccc1F)c1ccc(O)cc1O", "Potency": "inconclusive: 26.9 µM [inhibitor, single point]"}
{"smiles": "CCCc1cc(=O)n2[nH]c(-c3ccc(OC)cc3)nc2n1", "Potency": "inconclusive: 23.9 µM [inhibitor, single point]"}
{"smiles": "Cn1c(SCC(=O)NC2CCCCC2)nnc1-c1cc2ccccc2o1", "Potency": "inconclusive: 23.9 µM [inhibitor, single point]"}
{"smiles": "CCOC(=O)C1CCN(C(c2cccc(F)c2)c2c(O)cc(C)n(CCOC)c2=O)CC1", "note": "(stereo unspecified)", "Potency": "inactive"}
{"smiles": "COc1ccc(CNC(=O)CN(C)S(=O)(=O)c2ccc3c(c2)n(C)c(=O)c(=O)n3C)cc1", "Potency": "inactive"}
{"smiles": "CC(=O)c1ccccc1OCc1ccc(C(=O)c2ccccc2)cc1", "Potency": "inconclusive: 30.1 µM [inhibitor, partial curve, poor fit]"}
{"smiles": "O=C(COC(=O)CCS(=O)(=O)c1ccc(F)cc1)NC1CCCCC1", "Potency": "inactive"}
{"smiles": "Cc1ccc(NC(=O)Nn2cnnc2)cc1Cl", "Potency": "inactive"}
{"smiles": "COc1ccc(N2CCN(C(=O)c3ccc(Cn4c(=S)[nH]c5ccc(N6CCOCC6)cc5c4=O)cc3)CC2)cc1", "Potency": "inconclusive: 7.57 µM [inhibitor, full curve]"}
{"smiles": "CN(C)CCCNC(=O)c1ccc(-c2nc(-c3ccc(Cl)cc3)cs2)cc1", "Potency": "inconclusive: 21.3 µM [inhibitor, partial curve]"}
{"smiles": "CCn1cc(Br)c(C(=O)Nc2ccc(OC)cc2)n1", "Potency": "active: 15.1 µM"}
{"smiles": "CCc1ccc(NC(=O)c2cnc(SC)nc2C)cc1", "Potency": "inconclusive: 19 µM [inhibitor, partial curve]"}
{"smiles": "CCn1ccnc1[C@@H]1C[C@H]2CN(Cc3ccccc3OC)C(=O)[C@]23CCCN13", "Potency": "inactive"}
{"smiles": "Cc1ccc2nc(NC(=O)C3CCN(C(=O)c4ccc(F)cc4)CC3)sc2c1", "Potency": "inconclusive: 21.3 µM [inhibitor, partial curve, poor fit]"}
{"smiles": "O=C(Nc1ccc2oc(-c3ccncc3)nc2c1)c1cccs1", "Potency": "inconclusive: 21.3 µM [inhibitor, partial curve, poor fit]"}
